Source: PubChem BioAssay AID463173 (ICCB-Longwood Screening Facility, Harvard Medical School, 2010)
The campaign covered roughly 52,000 compounds. About 4,300 (8.3%) were called active. No stated cut-off is given here; in the data, active means survival mostly below about 52% (no sharp cut-off); inactive means mostly above about 56%. This is one part of the list.

Tested on: DeltatarO mutant
Assay: growth inhibition of S. aureus wild type versus tarO mutant, primary screen, teichoic acid synthesis inhibitors, RN4220, OD600 (AID 463173)
Details: OD600, 18 h, hits give low values, screened at 18.75 µg/mL (by protocol)

Row | SMILES | survival
1 | COc1ccc(NC(=O)CCc2nc3cccnc3n2Cc2cccs2)c(OC)c1 | inactive: 71%
2 | CCOC(=O)c1ccc(NC(=O)Nc2cccc(OCc3cc(=O)n4ccc(C)cc4n3)c2)cc1 | inactive: 68%
3 | CC(C)(C)n1nnnc1CN1CCC(NC(=O)Nc2ccc(F)cc2)CC1 | inactive: 102%
4 | CCN1CCN(CCC(=O)Nc2ccc(C)cc2)CC1 | inactive: 100%
5 | CCCCOc1ccc(NC(=O)CSc2ccc(C(=O)O)cn2)cc1 | inactive: 63%
6 | Cc1cc(N2CCN(c3ccccc3F)CC2)n2cnnc2n1 | inactive: 76%
7 | O=C(CSc1nnc(-c2ccccc2)c(-c2ccccc2)n1)Nc1ccccc1Cl | inactive: 75%
8 | CCCOc1ccc(C(=O)Nc2cc3nn(-c4ccc(CC)cc4)nc3cc2C)cc1 | inactive: 70%
9 | COc1cc(NC(=O)CCN2CCOCC2)cc(OC)c1 | inactive: 110%
10 | COc1ccccc1OCCCn1c(-c2ccc(Cl)cc2)nc2ccccc2c1=O | active: 29%
11 | CCC(C)Cn1c(COc2ccc(OC)cc2)nc2ccccc21 (centres undefined) | active: -1%
12 | COc1ccc(NC(=O)Nc2nnc(SCC(=O)Nc3cccc(C)c3C)s2)cc1 | inactive: 89%
13 | CCn1cnc2c(=O)oc3ccc(S(=O)(=O)N4CCN(c5cc(C)ccc5C)CC4)cc3c21 | inactive: 98%
14 | CN(C)S(=O)(=O)c1ccc(S(=O)(=O)N2CC=C(c3ccc(F)cc3)CC2)cc1 | inactive: 80%
15 | COc1ccc(C2=C(C)C(=O)N(Cc3ccc(C(=O)NCc4ccccc4C)cc3)S2(=O)=O)cc1 | inactive: 84%
16 | COc1ccc(CCn2nnnc2CN2CCN(Cc3ccccc3)CC2)cc1OC | inactive: 82%
17 | CCOc1ccc(NC(=O)CCn2c(-c3ccc(F)cc3)cc(C(C)=O)c2C)cc1 | inactive: 80%
18 | Cc1cccc(OCC(=O)OCc2cc(=O)n3nc(C4CC4)sc3n2)c1 | inactive: 87%
19 | CCN1C(=O)/C(=c2/s/c(=C3\SC(C)=C(C)N3CC)c(=O)n2CC)N(C)C1=S | inactive: 89%
20 | CCOC(=O)Cc1c(C)nc2c(-c3ccc(OC)c(OC)c3)c(C)nn2c1C | inactive: 82%

Row | SMILES | survival
21 | CCC(O)(CCN1CCCCC1)c1ccccc1 (centres undefined) | inactive: 80%
22 | COc1ccc(-c2cc(C(=O)Nc3ccc(C#N)cc3)no2)cc1 | inactive: 46%
23 | Cc1cccc(C(=O)Nc2nnc(S(=O)(=O)N3CCC(C)CC3)s2)c1 | active: 35%
24 | CCOC(=O)CC(NC(=O)c1cc2cc(OC)ccc2oc1=O)c1ccc(OC)cc1 (centres undefined) | inactive: 74%
25 | O=C(CCC(=O)N1CC2CCCN2c2ccccc21)NCc1ccccc1F (centres undefined) | inactive: 131%
26 | CC1Cc2ccccc2N1C(=O)CSc1nc(N)cc(N)n1 (centres undefined) | inactive: 71%
27 | COc1ccc(/C=C/c2nc(-c3ccccc3O)n(-c3ccccc3)n2)cc1OC | active: 13%
28 | Cc1cc(C)cc(OC(=O)c2cc(-c3ccc4c(c3)OCCO4)on2)c1 | active: -2%
29 | CCC(=O)N1CCc2cc(S(=O)(=O)NCCC(=O)NC(C)c3ccccc3)ccc21 (centres undefined) | inactive: 85%
30 | O=C(C1CCN(S(=O)(=O)c2cccc3nonc23)CC1)N1CCN(c2ccc(F)cc2)CC1 | inactive: 91%
31 | O=C(c1ccccc1)c1ccc(C(=O)O)c(C(=O)O)c1 | inactive: 113%
32 | CCOc1ccc(CNC(=O)CCS(=O)(=O)c2cc3c4c(c2)CCN4C(=O)CC3)cc1 | inactive: 76%
33 | CCOC(=O)c1c(C)oc2ncnc(Nc3ccc(CC)cc3)c12 | inactive: 85%
34 | CC1CCN(C(=O)CN2CCSc3ccc(S(=O)(=O)N(C)C)cc32)CC1 | inactive: 96%
35 | O=C(CN1C(=O)S/C(=C\c2ccco2)C1=O)CN1C(=O)S/C(=C\c2ccco2)C1=O | inactive: 78%
36 | O=C(CC1(O)C(=O)N(CCc2ccccc2)c2ccc(Br)cc21)c1ccccc1 (centres undefined) | active: 25%
37 | O=C(OCn1nnc2ccccc2c1=O)C1CCCCC1 | inactive: 113%
38 | COc1ccc(N(Cc2nnc3n2CCCCC3)C(=O)Nc2ccc(Cl)cc2)cc1Cl | inactive: 85%
39 | CCCn1c(SCC(=O)N2CCCC2)nnc1C(C)C | inactive: 101%
40 | CCC1CCCCN1C(=O)CSc1n[nH]c(-c2ccccc2)n1 (centres undefined) | inactive: 85%

Row | SMILES | survival
41 | Cc1cccc(OCC(=O)Nc2ccc(OCc3cc(=O)n4cc(C)ccc4n3)cc2)c1 | inactive: 83%
42 | Cc1c(Cl)cccc1NC(=O)C(C)n1nc(C)c2c(C)n(-c3ccccc3)nc2c1=O (centres undefined) | inactive: 91%
43 | CNC(=O)c1ccc(-c2nc(CN3CCc4ccccc43)c(C)o2)cc1 | inactive: 80%
44 | CC(=O)Nc1ccc(Nc2nc3ccc(Cl)cc3n3cnnc23)cc1 | inactive: 99%
45 | CCc1ccc2oc(C(=O)Nc3nc(-c4ccc(F)cc4)ns3)c(C)c2c1 | inactive: 68%
46 | CCOC(=O)c1cccc(NC(=O)CC2C(=O)N(c3ccccc3)C(=O)N2Cc2ccco2)c1 (centres undefined) | inactive: 63%
47 | Cc1nc2nc(C(F)(F)F)[nH]c2cc1Br | active: 4%
48 | COc1ccc(-c2cc(C(F)(F)F)n3nc(C(=O)OC(C)C)cc3n2)cc1 | inactive: 89%
49 | Cc1cc2c(n1-c1ccc(C(=O)NCCc3ccc(Cl)cc3)cc1)CCC(C)C2 (centres undefined) | inactive: 71%
50 | Cc1c(C2=CCN(S(=O)(=O)c3ccc(Cl)cc3)CC2)c2ccccc2n1CC(=O)N1CCCC1 | inactive: 57%
51 | Cc1ccccc1CN1CCC(CNC(=O)c2cc3ccc4cccnc4c3[nH]2)CC1 | inactive: 87%
52 | COc1ccccc1NC(=O)c1sc2nc(C)c(C(=O)Nc3ccc(Cl)cc3)c(-c3ccc(Br)cc3)c2c1N | inactive: 94%
53 | CC(C)(C)C(=O)NC1CC(=O)N(c2ccc3c(c2)OCCO3)C1 (centres undefined) | inactive: 125%
54 | COc1ccccc1N1CCN(C(=O)c2cc3c(s2)-c2ccccc2OC3)CC1 | inactive: 88%
55 | CCc1cccc(NC(=O)c2cc(S(=O)(=O)N3CCCCCC3)cn2C)c1 | inactive: 66%
56 | CN(C)CCOC(=O)c1ccco1 | inactive: 94%
57 | O=C1CC(c2nnc(Cc3ccc(F)cc3)o2)CN1c1ccccc1 (centres undefined) | inactive: 134%
58 | Cc1cccc(NC(=O)CSc2cn(CC(=O)N3CCC(C)CC3)c3ccccc23)c1C | inactive: 80%
59 | Fc1ccccc1-n1ncc2c1ncn1nc(COc3ccc(Cl)cc3)nc21 | inactive: 83%
